Measured values as given in PubChem BioAssay AID686971 (National Center for Advancing Translational Sciences (NCATS), 2013).
About 7,500 (2.1%) of roughly 360,000 compounds were called active. The inconclusive results got no clear call from the source; some entries with a clear call stand among them for comparison. Calls follow the shape of the dose curve; as a rule, active = well fitted cell-killing curve with a large enough effect; inconclusive = small, poorly fitted or top-dose-only effect, or effect the other way, or another doubt; inactive = no such curve, though single readings can be large or run the other way. No potency is given beside an inconclusive call; the fits are too rough.

test: qHTS for induction of synthetic lethality in tumor cells producing 2HG: qHTS for the HT-1080-IDH1KD cell line; details: HT-1080 IDH1 knockdown viability, ATP luminescence, 48 h; activity, negative = toxicity: at 46.1 µM (top of the series) unless noted;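 as to activity, negative = toxicity: 0% = DMSO wells and -100% = cell-free medium wells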
Method in brief: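 HT-1080-IDH1KD cells (IDH1 knocked down), 750/well in RPMI with 5% FBS, treated with compound 48 h at 37 degrees C. Viability by CellTiter-Glo luminescence, normalised to DMSO and no-cell wells; concentration-response curves classed.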
Potency is read from the fitted curve at half-maximal effect; tags tell the direction and shape of the fitted curve.

Structure (SMILES) | Potency | activity, negative = toxicity
COc1cc(C2C(C#N)=C(N)Oc3cc(O)ccc32)cc(OC)c1OC (stereo not given) | inconclusive [cytotoxic, full curve] | –
CC(C)CCNc1nc(-c2ccco2)c2c(c1C#N)CCCC2 | inconclusive [cytotoxic, single point] | –
N#C/C(=C/c1ccc(Sc2nc3ccccc3[nH]2)o1)c1cccc(F)c1 | inconclusive [cytotoxic, single point] | –
CC1CCCC(NC(=S)Nc2ccc(SC(F)F)cc2)C1C (stereo not given) | inconclusive [cytotoxic, single point] | –
COc1cc(/C=N/NC(=O)c2ccc3c(c2)OCO3)ccc1O | – | inactive: -6.51%
COc1ccc(S(=O)(=O)NCCc2c[nH]c3ccc(Cl)cc23)cc1 | inconclusive [cytotoxic, single point] | –
COc1ccc(CC(=O)Nc2ccc(-c3cn4ccccc4n3)cc2)cc1 | inconclusive [cytotoxic, single point] | –
O=C(N/N=C/c1cc([N+](=O)[O-])ccc1O)c1cccc2cc[nH]c12 | active: 9.2 µM | –
O=C(NCCNS(=O)(=O)c1cccc(C(F)(F)F)c1)c1cc(OCC(F)(F)F)ccc1OCC(F)(F)F | inconclusive [cytotoxic, single point] | –
Cc1[nH]c2ccc(C(=O)N3CCN(c4cccc(Cl)c4)CC3)cc2c1C | active: 7.31 µM | –
Cn1ncc2c(Nc3ccc(Br)cc3)nc(Nc3ccc(Br)cc3)nc21 | active: 18.4 µM | –
CCc1c(-c2cccc(Br)c2)ncn1Cc1cccc(-c2ccccc2)c1 | inconclusive [cytotoxic, partial curve, poor fit] | –
O=C(NC1CCCCC1)c1ccc(-c2ccc(Cl)cc2)o1 | inconclusive [cytotoxic, partial curve] | –
Cc1[nH]c(=S)c(C#N)c2c1CCCC2 | – | inactive: -0.245%
COCCn1c(SCC(=O)c2ccc(Cl)cc2)nnc1C(C)C | inconclusive [cytotoxic, single point] | –
Cc1ccc(SCC(=O)OCC(=O)NCCNC(=O)COC(=O)CSc2ccc(C)c(C)c2)cc1C | – | inactive: 2.56%
CCCCNCC1C(Oc2ccc(Cl)cc2)C(=O)N1c1ccccc1C (stereo not given) | active: 23.1 µM | –
CCn1c(C)c(C)c2cc(C(=O)N3CCc4ccccc4C3)ccc21 | active: 16.4 µM | –
CC(=O)c1ccc(N2CCN(C(=S)Nc3cccc(F)c3)CC2)cc1 | inconclusive [cytotoxic, single point] | –
COc1ccc(C(=O)Nc2ncc3c(n2)-c2ccccc2CC3)cc1 | inconclusive [cytotoxic, partial curve] | –
Cc1ccc(-c2ccc(/C=N\NC(=O)c3cc4c(ccc5ccccc54)o3)o2)cc1[N+](=O)[O-] | – | inactive: 24%
O=c1[nH]c2ccc(S(=O)(=O)Nc3ccccc3O)cc2[nH]1 | – | inactive: -4.52%
NC(Cc1ccc(F)cc1)c1csc(Nc2nccc(C(F)(F)F)n2)n1 (stereo not given) | active: 14.6 µM | –
CCOc1cccc(CN(C)CC2CCCN(CCc3ccc(Cl)cc3)C2)c1O (stereo not given) | inconclusive [cytotoxic, partial curve] | –

Structure (SMILES) | Potency | activity, negative = toxicity
CC1CCN(C2=C(NS(=O)(=O)c3ccccc3)C(=O)c3ccccc3C2=O)CC1 | inconclusive [cytotoxic, single point] | –
Cc1cccc2sc(NC(=O)C3c4ccccc4Oc4ccccc43)nc12 | inconclusive [cytotoxic, single point] | –
Clc1ccc(-n2nnnc2SCc2c(-c3ccccc3)nc3sccn23)cc1 | inconclusive [cytotoxic, single point] | –
CN(C)CCCNC(=O)C[C@H]1C[C@H](C(=O)N2CCCCC2)[C@@]2(CCc3ccccc3)c3[nH]c4cc(-c5ccco5)ccc4c3CCN2C1=O | inconclusive [cytotoxic, single point] | –
COc1ccc(Br)cc1CNc1ccccc1 | – | inactive: -0.155%
COc1cc(SC)ccc1C(=O)Nc1ccc2c(c1)OCO2 | inconclusive [cytotoxic, single point] | –
CCOC(=O)N1CCN(Cc2nc(N)nc(Nc3ccc(OC)cc3)n2)CC1 | inconclusive [cytotoxic, single point] | –
O=C(O)c1ccc(NC2=C/C(=N/S(=O)(=O)c3ccccc3)c3ccccc3C2=O)cc1 | active: 5.8 µM | –
CC(C)(C)c1ccc(CC(=O)N2CCC2(C)C(=O)Nc2cccc3cccnc23)cc1 (stereo not given) | – | inconclusive: -30.4% [cytotoxic]
O=C(Oc1ccc(Br)cc1C(=S)N1CCCC1)c1ccccc1Cl | – | inconclusive: -35.4% [cytotoxic]
Cc1cc(C)c2sc(N(CCCN(C)C)C(=O)COc3ccc(Cl)cc3)nc2c1 | inconclusive [cytotoxic, single point] | –
Cc1cs/c(=N/C(=S)Nc2ccccc2)n1C | inconclusive [rising, partial curve, poor fit] | –
COc1ccc(OC)c(C(=O)c2coc3ccc(OC(C)=O)cc23)c1 | – | inconclusive: -31.3% [cytotoxic]
CCCCC(=NCCc1c(C)[nH]c2ccccc12)C1=C(O)CC(c2ccccc2)CC1=O (stereo not given) | active: 9.2 µM | –
CC(=O)Nc1cccc(-c2nc3ccccc3o2)c1 | – | inactive: 11.1%
FC(F)C(F)(F)C(F)(F)C(F)(F)c1cc(-c2ccccc2)n[nH]1 | inconclusive [cytotoxic, single point] | –
Cc1ccc(/C=C/c2nc3ccccc3[nH]2)o1 | inconclusive [cytotoxic, single point] | –
CCN(c1ccc2c(c1)OCO2)S(=O)(=O)c1cc(Br)cc2c1N(C(C)=O)CC2 | inconclusive [cytotoxic, single point] | –
Cc1ccc(C2CC(c3ccc(Br)cc3)=NN2C(=O)CSC2=NN3CCCC(=O)N=C3S2)cc1 (stereo not given) | inconclusive [rising, single point] | –
O/N=C(/c1ccccc1)c1cc2cc(Br)cc(Br)c2o1 | inconclusive [cytotoxic, single point] | –
OC1CCCN(Cc2c3ccccc3cc3ccccc23)C1 (stereo not given) | inconclusive [cytotoxic, single point] | –
COc1cc(/C=C/C(=O)OCC(=O)c2ccc(OC(F)F)cc2)ccc1O | inconclusive [cytotoxic, partial curve, poor fit] | –
COc1ccc(/C=N/Nc2cc(C)nc3ccc(Br)cc23)cc1 | active: 20.6 µM | –
O=C1NC[C@@H](CCCCN2CCN(CCc3ccccc3)C(=O)C2=O)N(CCC2CCCCC2)C1=O | inconclusive [cytotoxic, single point] | –

Structure (SMILES) | Potency | activity, negative = toxicity
O=C1CC[C@@H](O)CCN1CC[C@H](Sc1ccccc1)c1ccccc1 | – | inactive: 1.19%
Cc1cc(O)ccc1NC(=S)NC(=O)c1cncc(Br)c1 | inconclusive [cytotoxic, single point] | –
CC(=O)SC1CC(=O)N(c2ccc(C(C)(C)C)cc2)C1=O (stereo not given) | inconclusive [cytotoxic, single point] | –
Cc1ccc(S(=O)(=O)NCCNC(C)c2ccc(Br)cc2)cc1 (stereo not given) | inconclusive [cytotoxic, single point] | –
COc1ccc(CNCC(O)(c2ccc(F)cc2)c2ccc(F)cc2)cc1OC | inconclusive [cytotoxic, single point] | –
CCCCC(=O)NC(=O)NC(c1ccccc1)c1ccccc1 | – | inactive: -1.4%
Cc1ccc(C2=NN(C(=O)CCl)C(c3ccco3)C2)o1 (stereo not given) | active: 7.31 µM | –
CCc1nc(SCC(=O)Nc2cc(OC)ccc2OC)c2c(C)c(C)sc2n1 | inconclusive [cytotoxic, single point] | –
COC(=O)[C@@]12C[C@@H](CC(=O)NCc3cccs3)C(=O)N(Cc3cccc4ccccc34)C1=CCC(C)(C)C2 | inconclusive [cytotoxic, single point] | –
O=C(CN1C(=O)c2ccccc2C1=O)NCC(=O)Nc1ccccc1 | – | inconclusive: 31.8%
O=C(c1c(F)cccc1F)N1CCN(CCOc2ccccc2)CC1 | – | inactive: 6.53%
Oc1cccc(NC(=S)N=Nc2c(O)[nH]c3ccc(Br)cc23)c1 | active: 20.6 µM | –
COc1cccc(C(=O)Oc2c(Br)cc(Br)cc2/C=N/NC(=O)c2cc(C)[nH]n2)c1 | inconclusive [cytotoxic, partial curve] | –
Cc1nnc2n1N=CC=C(C(C)(C)C)S2 | – | inactive: 4.88%
COc1cc(/C=N\NS(=O)(=O)c2ccccc2)cc(OC)c1OC | – | inactive: 3.41%
CCN1CCN(c2cc(C)c3cc(NC(=O)CCC(=O)N4CCN(c5ccccc5OC)CC4)ccc3n2)CC1 | inconclusive [cytotoxic, single point] | –
CCOC(=O)N1CCN(C(=O)c2ccc3c(c2)N=C(CC)c2cc(C)ccc2S3)CC1 | – | inactive: -14.3%
Cc1cc(F)ccc1S(=O)(=O)Nc1ccccc1C(=O)Nc1ccccc1N1CCOCC1 | inconclusive [cytotoxic, single point] | –
CC(C)C1C(=O)N(Cc2cn(CCC3OCCO3)nn2)CCS(=O)(=O)N1Cc1ccc(-c2ccccc2)cc1 (stereo not given) | – | inactive: -22.1%
COc1ccc(CNC(=O)C(c2ccco2)N(Cc2ccccc2)C(=O)Cc2cccs2)cc1 (stereo not given) | inconclusive [cytotoxic, single point] | –
COc1ccc(/C=N/Nc2ncnc3sc4c(c23)CCCC4)cc1OC | inconclusive [cytotoxic, single point] | –
CN(C)CCNc1c2c(nc3ccccc13)CCC2 | inconclusive [cytotoxic, single point] | –
